Patent US20190374601A1, “METHODS FOR TREATING FUNGAL INFECTIONS” (priority 2017, published 2019)
“And” between values parts separate entries of the source, which are not always exact repeats. Equal entries are not always repeated. Further values from the same series stand in other lists. Starred links: 1 amine or outer side, 2 acyl side, 3 side chain; linkers in the order of their positions; H or OH if unused. Positions of bridges follow the written chain, without caps; N, C: chain ends. Non-standard residues stand in square brackets, D forms with d. Residues, ends and D or L forms follow the SMILES beside them. *: point of attachment. Orn(4R-OH,5R-OCH2CH2NMe3+) = C[N+](C)(C)CCO[C@@H](N[*:3])[C@H](O)C[C@H](N[*:1])C(=O)[*:2]; pTerphenylCO(4''-OnC5H11) = CCCCCOc1ccc(-c2ccc(-c3ccc(C(=O)*)cc3)cc2)cc1; hTyr(3S-OH,4S-OH) = N[C@H](C(=O)O)[C@H](O)[C@@H](O)c1ccc(O)cc1; Pro(3S-OH,4S-Me) = C[C@H]1CN[C@H](C(=O)O)[C@H]1O; Hyp = O=C(O)[C@@H]1C[C@@H](O)CN1

Assay: Tissue concentration of subcutaneously injected CD101 in cynomolgus monkeys
Format: in vivo
Details: for CD101 Concentration: individual animals, at necropsy; for Mean Concentration: mean of males and females
Protocol: In this study, the tissue concentration of subcutaneously injected CD101 was evaluated in cynomolgus monkeys.
Dose levels were 30, 60, and 120 mg/kg/dose for Groups 2, 3, and 4, respectively. […] The dose volumes were 1.2, 0.3, 0.6, and 1.2 mL/kg spread evenly over 4, 1, 2, and 4 dose sites for Groups 1-4, respectively, on each day of dosing. The control and 120 mg/kg/dose groups each consisted of 5 males and 5 females, and the 30 and 60 mg/kg/dose groups each consisted of 3 males and 3 females.
The animals were observed twice daily for mortality and moribundity. Clinical examinations were performed once daily for at least 6 consecutive days, including the day of randomization, prior to randomization, prior to dosing, 1-2 hours postdosing, once daily on nondosing days, and once daily during the recovery period. Detailed physical examinations were performed at least weekly during the acclimation period until randomization, on the day of randomization, weekly (±2 days) during the study period, and on the day of the scheduled necropsies. Injection site (IS) observations were performed prior to dosing (dose sites that were utilized on that day of dosing), 1-2 hours postdosing (dose sites that were utilized on that day of dosing), once daily on nondosing days (dose sites that had been previously been utilized), and twice weekly during the recovery period. Individual body weights were recorded weekly (±2 days). Individual body weights were collected at least weekly during the acclimation period until randomization, on the day of randomization, Study Day 0 (prior to dosing), weekly (2±days) during the study period, on the day prior to the day of the scheduled necropsies (nonfasted) and on the day of the scheduled necropsies (fasted). Clinical pathology parameters (hematology, coagulation, serum chemistry, and urinalysis) were analyzed during acclimation prior to randomization (Study Day −15), and on the day of the primary (Study Day 17) and recovery (Study Day 45) necropsies. Blood samples for toxicokinetic evaluation were collected from all animals/sex/group/time point prior to dose administration and at approximately 1, 2, 4, 8, 24, 48, and 72 hours after dose administration on Study Days 0 and 12. Complete necropsies were performed on all animals, and selected organs were weighed at the scheduled necropsies. Selected tissues were examined microscopically from all animals. Fingernail, toenail, nail bed, and abdominal skin samples were collected from all animals at the scheduled necropsies for bioanalytical analysis.

Structure (SMILES): CCCCCOc1ccc(-c2ccc(-c3ccc(C(=O)N[C@H]4C[C@@H](O)[C@@H](OCC[N+](C)(C)C)NC(=O)[C@@H]5[C@@H](O)[C@@H](C)CN5C(=O)[C@H]([C@@H](C)O)NC(=O)[C@H]([C@H](O)[C@@H](O)c5ccc(O)cc5)NC(=O)[C@@H]5C[C@@H](O)CN5C(=O)[C@H]([C@@H](C)O)NC4=O)cc3)cc2)cc1 [CD101] ({pTerphenylCO(4''-OnC5H11)}-[Orn(4R-OH,5R-OCH2CH2NMe3+)]T[Hyp][hTyr(3S-OH,4S-OH)]T[Pro(3S-OH,4S-Me)]; lactam 1-C)
- CD101 Concentration (Fingernail, 30 mg/kg/dose SC once every 3 days (5 doses), 30 mg/kg): 90.0 µg/g
- Mean Concentration (Fingernail, 30 mg/kg/dose SC): 85.5 µg/g
- CD101 Concentration (Skin, 30 mg/kg/dose SC once every 3 days (5 doses), 30 mg/kg): 40.9 µg/g and 32.4 µg/g and 42.8 µg/g
- Mean Concentration (Skin, 30 mg/kg/dose SC): 40.4 µg/g
- CD101 Concentration (Toenail bed, 30 mg/kg/dose SC once every 3 days (5 doses), 30 mg/kg): 49.3 µg/g
- CD101 Concentration (Toenail bed, 60 mg/kg/dose SC once every 3 days (5 doses), 60 mg/kg): 196 µg/g and 116 µg/g and 182 µg/g and 129 µg/g and 165 µg/g and 149 µg/g
- Mean Concentration (Toenail bed, 60 mg/kg/dose SC): 156 µg/g
- CD101 Concentration (Toenail bed, 120 mg/kg/dose SC once every 3 days (5 doses), 120 mg/kg): 166 µg/g and 337 µg/g and 72.2 µg/g and 54.1 µg/g and 238 µg/g and 136 µg/g and 168 µg/g and 90.6 µg/g and 165 µg/g and 81.6 µg/g
- Mean Concentration (Toenail bed, 120 mg/kg/dose SC): 151 µg/g
